# According to PubChem BioAssay AID651820 (National Center for Advancing Translational Sciences (NCATS), 2012):
# Among all 340,000 compounds or so, about 12,000 (3.5%) were called active. Inconclusive means that the source gave no clear call. Such entries were picked first, then a sample of the others. Calls come from the whole dose curve; as a rule, active = well fitted inhibition curve with a large enough effect; inconclusive = small, poorly fitted or top-dose-only effect, or another doubt; inactive = no such curve, though single readings can be large or run the other way. Potencies of inconclusive entries are left out as doubtful fits.
# Assay: qHTS Assay for Inhibitors of Hepatitis C Virus (HCV)
# Settings: Huh7.5.1 HCVcc-Cre (HCVcc is cell-culture hepatitis C virus) infection, luciferase reporter, 44 h; activity change, negative = inhibition: at 41.8 µM (top of the series) unless noted
# In short: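 Infectious HCVcc-Cre (~0.5 moi) was added to cells just after compound, with cells seeded 4 h earlier at 1,000 per well. Luciferase activity after 44 h culture reported infection; substrate was incubated 15 min at room temperature before reading.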
# % is set by controls: 0 for no effect and ±100 for the full control effect; potency is the fitted concentration of half-maximal effect; tags give direction and shape of the fitted curve.
Structure (SMILES),Potency,"activity change, negative = inhibition"
COc1ccc(Cl)cc1Nc1nc(-c2cccnc2)cs1,active: 12.6 µM,
Cc1nc([N+](=O)[O-])cn1CC(O)c1ccc(-c2ccccc2)cc1 (configuration not stated),"inconclusive [inhibitor, single point]",
CN(C)CCC[C@]1(c2ccc(F)cc2)OCc2cc(C#N)ccc21,"inconclusive [inhibitor, partial curve]",
CC[C@@H]1CC=C[C@H]2[C@H]1C(=O)N(Cc1ccccc1)[C@H]2c1ccoc1,,inactive: -27.3%
CCOC(OCC)P(=O)(c1ccccc1)c1ccccc1,,inactive: 9.97%
CN(C)C(=O)CCc1ccc2c3c([nH]c2c1)[C@]1(CCC2CCCC2)[C@@H](C(=O)N2CCOCC2)C[C@H](CC(=O)NCC24CC5CC(CC(C5)C2)C4)C(=O)N1CC3,,inactive: -1.9%
CCCCSCCCNC(=O)CS(=O)Cc1nc(-c2cccc(C)c2)oc1C (configuration not stated),inactive,
CCOc1cccc(NCc2cc3c(C(C)(C)C)nn(-c4ccccc4)c3[nH]c2=O)c1,active: 12.6 µM,
O=C(CCN1C(=O)/C(=C/C=C/c2ccccc2)SC1=S)Nc1cccnc1,"inconclusive [inhibitor, partial curve]",
CC(C#N)Sc1ncnc2sc3c(c12)CCC3 (configuration not stated),,inactive: -28%
N/C(=N\OC(=O)c1cccc(Cn2cc(C(F)(F)F)ccc2=O)c1)c1ccccc1,"inconclusive [inhibitor, single point]",
COc1cccc(CNC(=O)Cc2ccc(NC3=NC4CS(=O)(=O)CC4S3)cc2)c1 (configuration not stated),,inactive: 5.11%
Cc1ccc(CNC(=O)Cn2ccc3cc(S(=O)(=O)N4CCCC4)ccc32)o1,,inactive: -3.72%
CC(C)C(Cl)=NOC(=O)Nc1ccc(F)cc1,"inconclusive [inhibitor, single point]",
Cc1ccc(NCCN(C)C)c2c(=O)c3cc(O)ccc3sc12,active: 10 µM,
O=C(CSc1nnc(-c2ccncc2)n1Cc1ccco1)Nc1ccccc1F,,inactive: 4.39%
CCc1ccccc1NC(=O)CN(C)C(=O)CSc1nnc(Nc2cccc(C)c2C)s1,"inconclusive [inhibitor, full curve, poor fit]",
COc1ccc(NC(=S)Nc2cccc3ccccc23)cc1OC,,inactive: -21.6%
O=C(NCc1ccco1)C1CCN(S(=O)(=O)c2cccc3cccnc23)CC1,,inactive: 5.83%
COC(=O)c1sc2ccccc2c1-n1cccc1C(=O)C(=O)Nc1ccc(F)cc1,"inconclusive [inhibitor, partial curve, poor fit]",
CSc1ccccc1-n1nnnc1SCC(=O)Nc1cc(C)ccc1C,"inconclusive [inhibitor, single point]",
CC(=O)N/C(=C\c1ccccc1)C(=O)OCC(=O)N(CC(C)C)c1c(N)n(Cc2ccccc2)c(=O)[nH]c1=O,"inconclusive [inhibitor, single point]",
COc1ccc(NC(=O)NC2CCCc3ccccc32)cc1 (configuration not stated),,inactive: -12.9%
CCc1cccc(NC(=O)C2CCN(S(=O)(=O)c3ccc4c(c3)CC(C)N4C(C)=O)CC2)c1 (configuration not stated),"inconclusive [inhibitor, single point]",

Structure (SMILES),Potency,"activity change, negative = inhibition"
Cc1c(C(=O)N/N=C/c2ccccc2)[nH]c2ccc(Cl)cc12,"inconclusive [inhibitor, single point]",
O=C(Nc1cccnc1Cl)c1noc2c1CCc1ccccc1-2,"inconclusive [inhibitor, single point]",
O=C(NC1CCC(NC(=O)C(F)(F)C(F)F)CC1)C(F)(F)C(F)F (configuration not stated),,inactive: 7.77%
Oc1ccccc1-c1cncn1Cc1ccccc1,"inconclusive [inhibitor, single point]",
COc1c(Br)cc(Br)cc1/C=N/NC(=O)c1ccncc1,,inactive: -6.43%
COc1ccccc1C(=O)N/C(=C\c1cn(S(=O)(=O)N(C)C)c2ccccc12)C(=O)N1CCCC1,,inactive: -16.7%
COc1cccc(C(=O)Cn2c(=O)n(CCC(=O)NCC3CCCO3)c(=O)c3cc(OC)c(OC)cc32)c1 (configuration not stated),,inactive: 1.98%
CCCc1nc2ccc(NC(=O)c3cccs3)cc2c(=O)n1Cc1ccccc1Cl,"inconclusive [inhibitor, partial curve]",
CCN(CC)S(=O)(=O)c1cc(C(=O)Nc2ccc(Cl)cn2)ccc1C,active: 15.8 µM,
Cc1cccc(C(=O)Nc2cccc3c2CCCC3)c1,,inactive: 21.1%
COc1cc2ncnc(NCCc3ccccc3)c2cc1OC,active: 11.2 µM,
O=C1Nc2ccccc2/C1=N/c1sc2c(c1C(=O)NCCc1ccccc1)CCCC2,"inconclusive [inhibitor, single point]",
CCn1cc(C(=O)NCc2ccccc2F)c(=O)c2ccc(C)nc21,"inconclusive [inhibitor, single point]",
COc1ccc(N2CCOCC2)c(NC(=O)c2cccc3ccccc23)c1,"inconclusive [inhibitor, partial curve]",
COc1ccc(-c2c(C)cc3oc(=O)cc(-c4ccccc4)c3c2C)cc1,"inconclusive [inhibitor, partial curve]",
O=C(Cn1cnc2sc(-c3ccccc3)cc2c1=O)NCc1ccco1,"inconclusive [inhibitor, partial curve]",
CCOC(=O)N/N=C/c1c(C)nn(-c2ccccc2Cl)c1Cl,"inconclusive [inhibitor, full curve, poor fit]",
CCOc1cc(NC(=O)c2ccco2)c(OCC)cc1NC(=O)Cc1ccc(OC)c(OC)c1,"inconclusive [inhibitor, partial curve]",
CN1CCN(C(=O)CN(C2CCCCC2)S(=O)(=O)c2ccc(Br)cc2)CC1,,inactive: -4.84%
CCN(CC)CCNCc1cc(Cl)c(OCC(=O)Nc2ccccc2)c(OC)c1,"inconclusive [inhibitor, partial curve]",
Cc1ccc(Cn2c(=N)c(C(=O)NCC3CCCO3)cc3c(=O)n4ccccc4nc32)cc1 (configuration not stated),"inconclusive [inhibitor, full curve, poor fit]",
COc1ccc(N2CCN(C(=O)CSc3ncccc3-c3nc4ccccc4[nH]3)CC2)cc1,"inconclusive [inhibitor, partial curve]",
Cc1cc(-c2nnc(SCc3cccnc3)o2)no1,"inconclusive [inhibitor, partial curve]",
Cc1ccc2nc(-c3ccc(NS(C)(=O)=O)cc3)cc(-c3ccccc3)c2c1,"inconclusive [inhibitor, single point]",

Structure (SMILES),Potency,"activity change, negative = inhibition"
Cc1nnc(NC(=O)c2ccc(S(=O)(=O)N3CCc4ccccc4C3)cc2)o1,,inactive: 9.14%
CCN(CC)C(=O)C1=C(C)Nc2nc3ccccc3n2C1c1cccc(OC)c1 (configuration not stated),,inactive: -3.57%
Cc1cc(C)n(-c2nnc(NCc3ccc(Cl)cc3)nn2)n1,,inactive: -9.38%
Cc1ccc(NC(=O)CN(C)S(=O)(=O)c2cccc3nsnc23)cc1Cl,"inconclusive [inhibitor, single point]",
COC(=O)[C@]1(CC(C)C)N[C@H](c2ccc(SC3CCCCC3)c(OC)c2)[C@@H]2C(=O)N(C)C(=O)[C@@H]21,"inconclusive [inhibitor, partial curve]",
C[C@@H](NC(=O)[C@@H]1Cc2ccccc2CN1)C(=O)NC1CCCC1,"inconclusive [inhibitor, single point]",
CCc1ccccc1N(C)S(=O)(=O)c1cc(-c2cc(C)no2)ccc1OC,active: 14.1 µM,
CC(=O)Nc1ccc(N2S(=O)(=O)c3ccccc3S2(=O)=O)cc1,,inactive: -24.6%
CCCCOC(=O)c1ccc(NC(=O)C2CCCO2)cc1 (configuration not stated),"inconclusive [inhibitor, single point]",
O=C(c1cccc(S(=O)(=O)N2CCCC2)c1)c1nnc(-c2ccncc2)o1,,inactive: 5.99%
COC(=O)NNC(=O)C(C)Oc1ccc(Cl)cc1Cl (configuration not stated),"inconclusive [inhibitor, single point]",
CCOC(=O)C1(Cc2ccccc2)CCCN(Cc2ccncc2)C1 (configuration not stated),,inactive: 9.99%
c1ccc2c(c1)[nH]c1c3ccccc3sc21,active: 11.2 µM,
O=C1OC(Oc2ccc(Br)cc2)(c2ccccc2)c2ccccc21 (configuration not stated),,inconclusive: -49.7% [inhibitor]
CCOC(=O)c1cc(NCc2cccs2)ccc1N1CCOCC1,"inconclusive [inhibitor, partial curve]",
CCOC(=O)c1cnc2c(C(F)(F)F)cccc2c1N1CCOCC1,"inconclusive [inhibitor, partial curve]",
NC(=O)N1c2ccccc2C=Cc2ccccc21,"inconclusive [inhibitor, single point]",
Cc1cccc(C(=O)N(CC(=O)Nc2sc(C)c(C)c2C(N)=O)C2CCCC2)c1,"inconclusive [inhibitor, single point]",
CNCCOc1ccccc1-c1ccccc1,,inactive: -15%
CCOC(=O)c1cc([N+](=O)[O-])cc([N+](=O)[O-])c1Sc1ncnc2nc[nH]c12,"inconclusive [inhibitor, single point]",
COc1ccc(Nc2c(C)cccc2C)cc1,"inconclusive [inhibitor, single point]",
O=[N+]([O-])c1cccc(-c2cc3ccccc3[nH]2)c1,"inconclusive [inhibitor, single point]",
Cc1ccc(NC(=O)CCNC(=O)c2ccccc2Cl)cc1S(=O)(=O)N1CCCCCC1,"inconclusive [inhibitor, single point]",
COCCn1c(C)cc(C(=O)CSc2nc3ccccc3c(=O)n2C(C)COC)c1C (configuration not stated),"inconclusive [inhibitor, single point]",
